Results as given in the antibiotic and cytotoxicity screens of Wong et al. (2023).
This is one part of the list.

The compounds below were run on S. aureus RN4220 (assay: growth inhibition call (relative growth <= 0.2)). Settings: 50 µM.

Row | Compound | growth inhibition call
1 | COc1ccc(NC(=O)Nc2ccc3c(c2)C(=O)N([C@H](C)CO)C[C@H](C)[C@@H](CN(C)C(=O)c2ccccc2)OCCCC[C@H](C)O3)cc1 | inactive
2 | CC(C)NC(=O)Nc1ccc2c(c1)C(=O)N([C@H](C)CO)C[C@H](C)[C@@H](CN(C)Cc1ccc3c(c1)OCO3)O2 | inactive
3 | C[C@H]1CN([C@@H](C)CO)C(=O)c2cc(-c3cncnc3)cnc2O[C@H]1CN(C)C(=O)Nc1ccc2c(c1)OCO2 | inactive
4 | C[C@H](CO)N1C[C@H](C)[C@@H](CN(C)Cc2ccc3c(c2)OCO3)Oc2c(NC(=O)c3ccncc3)cccc2C1=O | inactive
5 | CCCN(C)C[C@@H]1OCCCC[C@@H](C)Oc2ccc(NC(=O)Nc3c(C)noc3C)cc2C(=O)N([C@H](C)CO)C[C@@H]1C | inactive
6 | Cc1ncc([N+](=O)[O-])n1C[C@@H](C)O | inactive
7 | CCCNC(=O)C[C@@H]1CC[C@H]2[C@H](COc3ccc(NC(=O)c4ccc5c(c4)OCO5)cc3C(=O)N2C)O1 | inactive
8 | Cc1ccc(S(=O)(=O)Nc2ccc3c(c2)C(=O)N([C@H](C)CO)C[C@@H](C)[C@@H](CN(C)S(=O)(=O)c2cn(C)cn2)O3)cc1 | inactive
9 | C[C@H](CO)N1C[C@H](C)[C@H](CN(C)CC2CC2)OCCCC[C@H](C)Oc2ccc(NC(=O)Nc3cccc4ccccc34)cc2C1=O | inactive
10 | C[C@H](CO)N1C[C@H](C)[C@@H](CN(C)C(=O)c2ccccc2F)Oc2ncc(C#Cc3ccncc3)cc2C1=O | inactive
11 | CC(C)(C)[C@H]1COC(=O)[C@@H](NC(=O)OCC2c3ccccc3-c3ccccc32)CC=CC[C@H](CC(=O)N(CCO)Cc2ccccc2)C(=O)N1 | inactive
12 | Cc1ccc(S(=O)(=O)Nc2ccc3c(c2)C(=O)N([C@H](C)CO)C[C@@H](C)[C@H](CN(C)Cc2ccc4c(c2)OCO4)OCCCC[C@@H](C)O3)cc1 | inactive
13 | C[C@H](CO)N1C[C@H](C)[C@@H](CN(C)C(=O)CN(C)C)Oc2cc(C#Cc3ccc(F)cc3)ccc2S1(=O)=O | inactive
14 | C[C@@H]1CN([C@@H](C)CO)C(=O)Cc2cc(NC(=O)Nc3ccc(F)cc3)ccc2O[C@H]1CN(C)Cc1ccc(-c2ccccc2)cc1 | inactive
15 | O=C(CCCCC(=O)N/N=C/[C@H](O)[C@@H](O)[C@@H](O)[C@H](O)C(=O)O)NO | inactive
16 | CCC1OC(=O)C(C)C(OC2CC(C)(OC)C(O)C(C)O2)C(C)C(OC2OC(C)CC(N(C)C)C2O)C(C)(OC)CC(C)C(=O)C(C)C(O)C1(C)O (stereo not given) | active
17 | CC(C)NC(=O)N(C)C[C@H]1Oc2c(NS(=O)(=O)c3cccs3)cccc2C(=O)N([C@H](C)CO)C[C@@H]1C | inactive
18 | C[C@@H]1CN([C@@H](C)CO)C(=O)Cc2cc(NC(=O)Nc3ccc(C(F)(F)F)cc3)ccc2O[C@@H]1CN(C)C(=O)Nc1ccc2c(c1)OCO2 | inactive
19 | C[C@@H]1CN([C@@H](C)CO)C(=O)c2cccc(NS(=O)(=O)c3ccc(F)cc3)c2O[C@H]1CN(C)Cc1ccc(Cl)c(Cl)c1 | inactive
20 | C[C@H](CO)N1C[C@H](C)[C@@H](CN(C)C(=O)NC2CCCCC2)OCCCC[C@H](C)Oc2ccc(NC(=O)Nc3ccc4c(c3)OCO4)cc2C1=O | inactive

Row | Compound | growth inhibition call
21 | COc1ccc(NC(=O)Nc2ccc3c(c2)C(=O)N([C@@H](C)CO)C[C@@H](C)[C@@H](CN(C)Cc2ccc(Oc4ccccc4)cc2)O3)cc1 | inactive
22 | NC(=O)c1cc(S(=O)(=O)N2CCOCC2)ccc1F | inactive
23 | C[C@@H]1O[C@H]2Oc3c(-c4ccc(O)c(O)c4)oc4cc(O)c(c(O)c4c3=O)-c3cc(ccc3O)/C=C\C(=O)OC[C@H]3O[C@@H](O[C@H]([C@H]1O)[C@H]2O)[C@H](O)[C@@H](O)[C@@H]3O | inactive
24 | C[C@@H]1CN([C@H](C)CO)C(=O)c2cccc(NC(=O)C3CC3)c2O[C@H]1CN(C)S(=O)(=O)c1cn(C)cn1 | inactive
25 | O=C(CCCCCCC(=O)N/N=C/[C@@H](O)[C@@H](O)[C@H](O)[C@H](O)CO)NO | inactive
26 | CCOC(=O)N(C)C[C@@H]1OCc2cnnn2CCCC(=O)N([C@H](C)CO)C[C@@H]1C | inactive
27 | C[C@@H]1CCCCO[C@H](CN(C)Cc2ccc3c(c2)OCO3)[C@H](C)CN([C@H](C)CO)C(=O)c2cc(NC(=O)Nc3ccccc3)ccc2O1 | inactive
28 | C[C@@H]1CCCCO[C@H](CN(C)C(=O)Nc2cccc3ccccc23)[C@H](C)CN([C@@H](C)CO)C(=O)c2cc(N(C)C)ccc2O1 | inactive
29 | Cn1cncc1C(=O)O | inactive
30 | Cc1noc(C)c1S(=O)(=O)Nc1ccc2c(c1)C(=O)N([C@@H](C)CO)C[C@H](C)[C@@H](CN(C)S(=O)(=O)c1cccs1)O2 | inactive
31 | C[C@@H]1CCCCO[C@@H](CN(C)CC2CCCCC2)[C@H](C)CN([C@H](C)CO)C(=O)c2cc(NC(=O)CCCCCC(=O)Nc3ccccc3N)ccc2O1 | inactive
32 | COc1ccc(-c2ccc3c(c2)O[C@@H](CN(C)CC2CCOCC2)[C@@H](C)CN([C@H](C)CO)S3(=O)=O)cc1 | inactive
33 | C[C@@H]1CN([C@H](C)CO)C(=O)c2cc(NC(=O)CCCN(C)C)ccc2O[C@@H]1CN(C)Cc1ccc(C(=O)O)cc1 | inactive
34 | C#Cc1cnc(OC)cn1 | inactive
35 | O=C(C[C@@H]1CC[C@H](NS(=O)(=O)c2ccccc2)[C@H](CO)O1)NCc1ccncn1 | inactive
36 | CCCN(C)C[C@H]1OCCCC[C@H](C)Oc2ccc(NC(=O)Nc3ccc(OC)cc3)cc2C(=O)N([C@H](C)CO)C[C@@H]1C | inactive
37 | O=C(C[C@H]1CC[C@H](NC(=O)Cc2ccccn2)[C@@H](CO)O1)NCCc1ccncc1 | inactive
38 | C[C@@H]1CCCCO[C@@H](CN(C)Cc2ccc(Cl)c(Cl)c2)[C@H](C)CN([C@H](C)CO)C(=O)c2cc(NS(=O)(=O)c3cn(C)cn3)ccc2O1 | inactive
39 | COC(=O)C1=C(C)NC(C)=C(C(=O)OC(C)(C)CN(C)CCC(c2ccccc2)c2ccccc2)[C@@H]1c1cccc([N+](=O)[O-])c1 | inactive
40 | C[C@H](O)C#Cc1ccc2c(c1)O[C@H](CN(C)C(=O)c1ccccc1)[C@@H](C)CN([C@@H](C)CO)S2(=O)=O | inactive
